The test has as its system human PBMCs in the presence of the Nectin-4 expressing MDA-MB-175-VII tumor cell line. Kind of test: Human PBMC TNF-α production in co-culture with Nectin-4 expressing MDA-MB-175-VII cells. The test is classed as cell-based. To be noted: PBMC:MDA-MB-175-VII 5:1, 24 hours. On the procedure:
Production of TNF-α from peripheral blood mononuclear cells (PBMCs) co-cultured with Nectin-4 expressing tumor cell lines when contacted with anti-Nectin-4-TLR8 agonist conjugates was examined. Briefly, PBMCs were isolated from normal human donor peripheral blood using SepMate™-50 PBMC Isolation Tubes (STEMCELL Technologies) according to manufacturer's instructions. Isolated PBMCs were cultured with the Nectin-4 expressing tumor cell line MDA-MB-175-VII (ATCC) or the Nectin-4 negative cell line HEK-293 (ATCC) at a 5:1 ratio in the presence of titrated concentrations of anti-Nectin-4-TLR8 agonist antibody conjugates, unconjugated anti-Nectin-4 antibody controls, or an isotype control-TLR8 agonist conjugate. After 24 hours, the cell-free supernatants were collected and stored at −80° C. prior to analysis. TNF-α levels in the cell-free supernatants were quantified using the TNF-α (human) AlphaLISA® Detection Kit (Perkin Elmer) according to manufacturer's instructions.

Data on one molecule can be found in patent US12364768B2, “Nectin-4 antibody conjugates and uses thereof” (ARARIS BIOTECH AG, priority 2020, dated 2025).

B1: hzD6.1C-Compound 2.14: "anti-Nectin-4-TLR8 agonist immunoconjugates (hzD6.2C-Compound 2.14, hzD6.1C-Compound 2.14, ...)"; "humanized derivatives" (conjugate)
heavy: EVQLVESGGGLVQPGGSLRLSCAASGFTFSNYDMSWVRQAPGKGLEWVATISSGGSYTYYVDSVKGRFTISRDNAKNSLYLQMNSLRAEDTAVYYCARQELGSYYAMDYWGQGTTVTVSS[human IgG1 constant region omitted]
light: DVVMTQTPLSLPVTPGEPASISCRSSQSIVHSNGNTYLEWYLQKPGQSPQLLIYKVSNRFSGVPDRFSGSGSGTDFTLKISRVEAEDVGVYYCFQGSHVPYTFGGGTKVEIKRTVAAPSVFIFPPSDEQLKSGTASVVCLLNNFYPREAKVQWKVDNALQSGNSQESVTEQDSKDSTYSLSSTLTLSKADYEKHKVYACEVTHQGLSSPVTKSFNRGEC
For the molecule B1, the “increase in maximal TNF-α production compared to D6C IgG1-Compound 2.14” value is approximately 3 fold and the “increase in maximal TNF-α production compared to anti-Nectin-4 IgG1-Compound 2.14” value is recorded as approximately 3 fold.
